# In the supplement of paper PMC4604168 (melanoma cell lines):
# The other results are listed elsewhere or left out. Repeats are few or missing, and single values can be far off.
# What was measured:
# Experiment in all cases: cell count relative to DMSO control; melanoma cells; higher = more viable cells
# Conditions in all cases: library dose: low library concentration; 72 h
# [1] = tested on: COLO792
# [2] = tested on: COLO800
# [3] = tested on: COLO829
# [4] = tested on: G361
# [5] = tested on: IPC-298
# [6] = tested on: IST-MEL1
# [7] = tested on: LB2518-MEL
# [8] = tested on: LOXIMVI
# [9] = tested on: MEL-HO
# [10] = tested on: MZ2-MEL
# 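Also: cell number obtained by counting DAPI-stained nuclei in high-throughput microscope images with image analysis software, screen run in 1,536-well plates.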
SMILES,cell count [1],cell count [2],cell count [3],cell count [4],cell count [5],cell count [6],cell count [7],cell count [8],cell count [9],cell count [10]
"Oc1cc(-c2nc(-c3ccccc3)[nH]c2-c2ccncc2)ccc1Cl + O=C(O)C(=O)Nc1sc2c(c1C(=O)O)CCNC2 [TCS401] (first compound 0.2 µM, partner dose 1.66667 µM)",90.2%,87.1%,101%,96.1%,93.6%,97.7%,90.1%,150%,93.9%,87.3%
"COc1ccc2c(c1)CCC1C2CCC2(C)C(NCCCCCCN3C(=O)C=CC3=O)CCC12 (stereo not given) + Cc1cc([N+](=O)[O-])ccc1NS(=O)(=O)c1cc(Cl)ccc1Cl [FH535] (first compound 0.4 µM, partner dose 1 µM)",86.6%,109%,86.9%,72.9%,94.7%,96.9%,107%,81.1%,73.1%,88.9%
"COc1cc2ncnc(Nc3ccc(Oc4ccccc4)cc3)c2cc1OC + c1cc(-c2cnn3cc(-c4ccc(OCCN5CCCCC5)cc4)cnc23)ccn1 [Dorsomorphin] (first compound 2 µM, partner dose 0.4 µM)",88.8%,127%,110%,97.6%,94.2%,95.2%,142%,117%,102%,81.6%
"COC(=O)c1sccc1S(=O)(=O)Nc1ccc(Nc2ccccc2)cc1OC + CC(C)CCN1c2nc(Nc3cc(F)c(O)c(F)c3)ncc2N(C)C(=O)C1C [BID1870] (first compound 1 µM, partner dose 0.2 µM)",93.9%,89.4%,104%,84.5%,89.5%,99.4%,101%,116%,102%,92.1%
"O=C(O)C(=O)Nc1sc2c(c1C(=O)O)CCNC2 + O=c1cc(-c2cccc3c2Sc2ccccc2S3)oc(N2CCOCC2)c1 [KU55933] (first compound 1.66667 µM, partner dose 1 µM)",110%,142%,86.5%,105%,98.5%,115%,117%,176%,105%,102%
"COc1cc2ncnc(Nc3ccc(Oc4ccccc4)cc3)c2cc1OC + Oc1nc(-c2ccc(C(F)(F)F)cc2)nc2c1CSCC2 [XAV939] (first compound 2 µM, partner dose 2 µM)",77%,128%,115%,91.4%,92.5%,107%,122%,106%,101%,85.5%
"Oc1nc(-c2ccc(C(F)(F)F)cc2)nc2c1CSCC2 + CC(C)CCN1c2nc(Nc3cc(F)c(O)c(F)c3)ncc2N(C)C(=O)C1C [BID1870] (first compound 2 µM, partner dose 0.2 µM)",81.6%,137%,107%,85.8%,91.8%,99.8%,96.5%,93.8%,83.9%,95.7%
"COc1ccc(-c2ccc3c(N4CCOCC4)nc(N4C[C@@H](C)O[C@@H](C)C4)nc3n2)cc1CO + CC(C)CCN1c2nc(Nc3cc(F)c(O)c(F)c3)ncc2N(C)C(=O)C1C [BID1870] (first compound 0.02 µM, partner dose 0.2 µM)",95.1%,73.2%,81.7%,90.1%,91.4%,105%,96.7%,180%,87.2%,98.6%
"CCN(CC)CCCCNc1ncc2cc(-c3cc(OC)cc(OC)c3)c(NC(=O)NC(C)(C)C)nc2n1 + COc1cc2ncnc(Nc3ccc(Oc4ccccc4)cc3)c2cc1OC [SrcI1] (first compound 0.1 µM, partner dose 2 µM)",87.5%,105%,103%,109%,93.7%,93.7%,102%,95.4%,80.2%,95.7%
"O=S(=O)(c1ccccc1)N(CC(F)(F)F)c1ccc(C(O)(C(F)(F)F)C(F)(F)F)cc1 + Cc1cc([N+](=O)[O-])ccc1NS(=O)(=O)c1cc(Cl)ccc1Cl [FH535] (first compound 1.4 µM, partner dose 1 µM)",91.2%,93.3%,75.2%,80.6%,84.1%,102%,83.9%,107%,86.1%,96.5%
"COc1ccc(-c2ccc3c(N4CCOCC4)nc(N4C[C@@H](C)O[C@@H](C)C4)nc3n2)cc1CO + Oc1cc(-c2nc(-c3ccccc3)[nH]c2-c2ccncc2)ccc1Cl [L779450] (first compound 0.02 µM, partner dose 0.2 µM)",97.3%,104%,99.6%,85.3%,71.5%,101%,84.6%,109%,79.6%,76.8%
"COc1cc2ncnc(Nc3ccc(Oc4ccccc4)cc3)c2cc1OC + CCCCCCCCCCCC1=C(O)C(=O)C=C(O)C1=O [Embelin] (first compound 2 µM, partner dose 1.2 µM)",105%,89.6%,117%,98.4%,92.8%,91.5%,137%,118%,104%,94.6%
"COc1ccc2c(c1)CCC1C2CCC2(C)C(NCCCCCCN3C(=O)C=CC3=O)CCC12 (stereo not given) + COc1ccc(COc2ccc(Cc3cnc(N)nc3N)cc2OC)cc1 [GW2580] (first compound 0.4 µM, partner dose 1 µM)",90.4%,109%,106%,94.6%,97.1%,88.1%,91.9%,130%,83.3%,100%
"Oc1cc(-c2nc(-c3ccccc3)[nH]c2-c2ccncc2)ccc1Cl + COc1cc(N2CCC(N3CCN(C)CC3)CC2)ccc1Nc1ncc(Cl)c(Nc2ccccc2S(=O)(=O)C(C)C)n1 [NVP-TAE684] (first compound 0.2 µM, partner dose 0.08 µM)",90.2%,92.3%,99.5%,73.6%,88.9%,102%,123%,130%,86.9%,87%
"COc1ccc2c(c1)CCC1C2CCC2(C)C(NCCCCCCN3C(=O)C=CC3=O)CCC12 (stereo not given) + Oc1nc(-c2ccc(C(F)(F)F)cc2)nc2c1CSCC2 [XAV939] (first compound 0.4 µM, partner dose 2 µM)",79.5%,123%,102%,89.5%,102%,111%,98.7%,69.1%,101%,93.2%
"CCN(CC)CCCCNc1ncc2cc(-c3cc(OC)cc(OC)c3)c(NC(=O)NC(C)(C)C)nc2n1 + CC(C)CCN1c2nc(Nc3cc(F)c(O)c(F)c3)ncc2N(C)C(=O)C1C [BID1870] (first compound 0.1 µM, partner dose 0.2 µM)",85.6%,115%,113%,101%,96.1%,109%,93.1%,71.9%,87.3%,97.8%
"Cc1cc([N+](=O)[O-])ccc1NS(=O)(=O)c1cc(Cl)ccc1Cl + c1cc(-c2cnn3cc(-c4ccc(OCCN5CCCCC5)cc4)cnc23)ccn1 [Dorsomorphin] (first compound 1 µM, partner dose 0.4 µM)",73.6%,123%,108%,78.5%,90.8%,79.7%,94.2%,96.3%,89.1%,95%
"N#Cc1c(O)c2c(-c3ccc(-c4ccccc4O)cc3)csc2[nH]c1=O + COc1ccc2c(c1)CCC1C2CCC2(C)C(NCCCCCCN3C(=O)C=CC3=O)CCC12 [U73122] (first compound 2 µM, partner dose 0.4 µM)",97.4%,87.9%,103%,104%,103%,102%,122%,139%,87.5%,99.9%
"COc1ccc2c(c1)CCC1C2CCC2(C)C(NCCCCCCN3C(=O)C=CC3=O)CCC12 (stereo not given) + O=S(=O)(c1ccccc1)N(CC(F)(F)F)c1ccc(C(O)(C(F)(F)F)C(F)(F)F)cc1 [T0901317] (first compound 0.4 µM, partner dose 1.4 µM)",94.4%,95.3%,89.9%,83.5%,98.3%,96.8%,112%,84.5%,94.3%,105%
"O=S(=O)(c1ccccc1)N(CC(F)(F)F)c1ccc(C(O)(C(F)(F)F)C(F)(F)F)cc1 + c1cc(-c2cnn3cc(-c4ccc(OCCN5CCCCC5)cc4)cnc23)ccn1 [Dorsomorphin] (first compound 1.4 µM, partner dose 0.4 µM)",93%,127%,98.4%,98%,98.8%,109%,106%,89.8%,76.6%,99.5%
"COc1ccc(-c2ccc3c(N4CCOCC4)nc(N4C[C@@H](C)O[C@@H](C)C4)nc3n2)cc1CO + O=C1NC(=O)/C(=C/c2ccc(-c3ccc(F)cc3O)o2)S1 [AS252424] (first compound 0.02 µM, partner dose 1 µM)",99%,75.7%,130%,93.2%,90.8%,91.8%,92.9%,61.2%,83.5%,87.7%
"COc1ccc(COc2ccc(Cc3cnc(N)nc3N)cc2OC)cc1 + O=C(O)C(=O)Nc1sc2c(c1C(=O)O)CCNC2 [TCS401] (first compound 1 µM, partner dose 1.66667 µM)",95.5%,93.6%,99.3%,85.5%,98.6%,95.2%,103%,97.4%,146%,92.9%
"COc1ccc(COc2ccc(Cc3cnc(N)nc3N)cc2OC)cc1 + c1cc(-c2cnn3cc(-c4ccc(OCCN5CCCCC5)cc4)cnc23)ccn1 [Dorsomorphin] (first compound 1 µM, partner dose 0.4 µM)",95.6%,114%,103%,93.1%,91.3%,91.7%,103%,93.4%,97.1%,95.6%
"O=S(=O)(c1ccccc1)N(CC(F)(F)F)c1ccc(C(O)(C(F)(F)F)C(F)(F)F)cc1 + CC(C)CCN1c2nc(Nc3cc(F)c(O)c(F)c3)ncc2N(C)C(=O)C1C [BID1870] (first compound 1.4 µM, partner dose 0.2 µM)",87.1%,89.9%,87.8%,85.1%,89.4%,102%,110%,91.5%,90.6%,97.3%
